Test results: paper PMC6919601, “Identification of Plasmodium dipeptidyl aminopeptidase allosteric inhibitors by high throughput screening” (PLoS ONE, 2019)
Screen size: about 110,000 compounds; about 230 (0.21%) showed an effect of 50% or more. The list shows a part of the results.

target: DPAP1 (Plasmodium falciparum, UniProt Q8IIJ9); assay: primary screen, percent inhibition; read by cleavage of a fluorogenic dipeptide substrate; higher = more effect of the substance; design: species or system P. falciparum D10 trophozoite lysates; single well
Sequence (Q8IIJ9 whole entry, looked up): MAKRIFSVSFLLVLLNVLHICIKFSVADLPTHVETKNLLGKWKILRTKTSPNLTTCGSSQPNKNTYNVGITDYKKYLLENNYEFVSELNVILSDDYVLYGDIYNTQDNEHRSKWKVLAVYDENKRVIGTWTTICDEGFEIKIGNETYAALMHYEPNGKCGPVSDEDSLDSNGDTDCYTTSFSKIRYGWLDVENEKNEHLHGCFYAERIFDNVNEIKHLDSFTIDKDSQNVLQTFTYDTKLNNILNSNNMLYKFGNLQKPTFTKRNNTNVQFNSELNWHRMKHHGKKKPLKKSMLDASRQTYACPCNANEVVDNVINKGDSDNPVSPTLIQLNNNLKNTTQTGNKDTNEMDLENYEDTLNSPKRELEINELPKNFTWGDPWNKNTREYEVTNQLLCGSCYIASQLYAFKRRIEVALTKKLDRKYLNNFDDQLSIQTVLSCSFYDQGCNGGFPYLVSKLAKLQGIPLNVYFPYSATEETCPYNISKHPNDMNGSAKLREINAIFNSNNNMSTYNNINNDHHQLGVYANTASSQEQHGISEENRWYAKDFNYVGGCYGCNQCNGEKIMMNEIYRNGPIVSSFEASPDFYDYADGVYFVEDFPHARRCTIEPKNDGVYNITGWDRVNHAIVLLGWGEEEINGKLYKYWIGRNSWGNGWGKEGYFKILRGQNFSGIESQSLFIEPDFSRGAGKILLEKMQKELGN
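Note: 30 min substrate incubation versus DMSO and 10 µM JCP410 controls.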

Row | Compound | % Inhibition @ 10 uM
1 | CC(C)C[C@H](NC(=O)c1cc(-c2ccncc2)c(Cl)s1)C(=O)NCC#N | 4.33%
2 | CS(=O)(=O)c1ccc2nc(NC(=O)c3nc(SCc4ccccc4)ncc3Cl)sc2c1 | 0.548%
3 | Cc1nc2c(cc(O)c3ccsc32)s1 | -11.1%
4 | O=C(CC(c1ccccc1O)N1CCCCC1)N1CCCCC1 (stereo not shown) | -7.35%
5 | COc1ccc(C2C(C(=O)O)c3ccccc3C(=O)N2C)cc1OC (stereo not shown) | -3.31%
6 | CC1CN(CC(O)COc2ccc(Cl)cc2)CC(C)O1 (stereo not shown) | -3.44%
7 | O=C1CCCC2=C1C(c1cccs1)C1C(=O)c3ccccc3C1=N2 (stereo not shown) | -0.171%
8 | CN(C)S(=O)(=O)c1ccc2c(c1)Cc1cc(S(=O)(=O)N(C)C)ccc1-2 | -3.75%
9 | CC1=C(C(=O)NCCCN2CCN(C)CC2)C2(CCCCC2)OC1=O | 1.76%
10 | CC1(C)CC2=NC3=C(C(=O)c4ccccc43)C(c3cccnc3)C2=C(O)C1 (stereo not shown) | 0.851%
11 | O=C(Nc1cccc(Br)c1)/C(=C\c1ccco1)NC(=O)c1cccs1 | 0.792%
12 | CCN(CC)c1ccc(NC(=O)c2ccc(Cl)cc2)cc1 | 6.18%
13 | Cc1cccc(C(=O)Nc2sc3c(c2C(=O)N2CCOCC2)CCC3)c1 | -6.6%
14 | C[C@@H](C[C@H](NC(=O)c1ccc(-c2cc(C(=O)O)ccc2Cl)cc1)C(=O)NC1(C#N)CCS(=O)(=O)CC1)c1ccccc1 | -8.36%
15 | CCC1CCC(NCc2ccncc2)CC1 (stereo not shown) | -3.42%
16 | Cc1ccccc1S(=O)Cc1ccc(C(=O)N2CC(C)CC(C)C2)o1 (stereo not shown) | -3.09%
17 | O=C(CN1C(=O)c2ccccc2C1=O)Nc1ccc(NC(=O)c2ccco2)cc1 | 11.5%
18 | COc1ccc(CN2CCN(Cc3cccc(Br)c3)CC2)c(OC)c1 | -4.6%
19 | COCCNC(=O)c1cc2c(Cl)nc3ccccc3c2s1 | 4.41%
20 | Cc1noc(/C=C/c2cccs2)c1S(=O)(=O)N1CCC(C(=O)NCc2cccnc2)CC1 | -1.28%
21 | O=C(CN1CCN(c2ccc(Cl)cc2)CC1)Nc1ccccc1Cl | 15.2%
22 | c1ccc(CN2CCC(NCC3CCCO3)CC2)cc1 (stereo not shown) | 1.57%
23 | COc1ccc(-c2cc(-c3ccc(F)cc3)nc(-c3ccncc3)n2)cc1 | 5.45%
24 | Cc1cc2nc(O)c(O)nc2cc1S(=O)(=O)NCc1ccccc1 | 0.442%
25 | C=CC1CN2CCC1CC2C(OC(=O)c1ccco1)c1ccnc2ccccc12 (stereo not shown) | 3.14%

Row | Compound | % Inhibition @ 10 uM
26 | O=C1c2ccccc2C(=O)N1c1nccs1 | -1.77%
27 | CCc1ccc(N(CC(=O)Nc2ccc(NC(C)=O)cc2)S(=O)(=O)c2ccccc2)cc1 | 13.9%
28 | CC(=O)Nc1sc2c(c1C(=O)Nc1ccccc1C)CCC(C)C2 (stereo not shown) | -0.67%
29 | CCCCN(CCCNC(=O)C1CCN(S(=O)(=O)CCC)CC1)Cc1ccccc1 | 1.62%
30 | N#Cc1ccccc1NC(=O)C(Cc1ccc([N+](=O)[O-])cc1)N1C(=O)c2ccccc2C1=O (stereo not shown) | 0.937%
31 | CN1C(N)=NC(=O)/C1=C/c1cccnc1 | 2.56%
32 | Cc1ccccc1-c1noc(-c2nnn(-c3cccc(C)c3C)c2N)n1 | -6.26%
33 | CC(=O)Nc1c(C(=O)c2ccc(F)cc2)oc2ccccc12 | 1.4%
34 | CN(C)c1ccc(/C=c2/sc3n(c2=O)CCCCN=3)cc1 | 3.72%
35 | CC(NC(=O)C1CCN(C(=O)N(C)C)CC1)c1ccccc1 (stereo not shown) | -1.34%
36 | CC(/C=C1\N=C(c2ccccc2F)OC1=O)=C\c1ccccc1 | 1.97%
37 | COc1cccc(C2C=C(c3ccc(C(C)C)cc3)Nc3nnnn32)c1OC (stereo not shown) | 1.86%
38 | CCCN(CCO)Cc1ccc(SC)cc1 | 4.28%
39 | c1ccc(-c2n[nH]c(-c3ccccc3)c3cccc2-3)cc1 | 0.716%
40 | COc1ccc(N/C=C2\C(=O)N(C)C(=O)c3cc(OC)ccc32)cc1 | 4.06%
41 | CCOc1ncnc2c1sc1nc(-c3ccccc3)c3c(c12)CC(C)(C)OC3 | 1.63%
42 | COc1cccc(C(=O)Nc2ccc(F)cc2)c1 | -5.82%
43 | O=C1C2C(c3cccc(F)c3)OC3(C(=O)c4ccccc4C3=O)C2C(=O)N1C1CCCCC1 (stereo not shown) | 4.26%
44 | Cn1c2c(c(=O)n(C)c1=O)CN(CCOc1cccc(C(F)(F)F)c1)CN2 | -1.08%
45 | Cc1ccc(Cn2c(SCc3ccc(C(=O)NCCN4CCCC4)cc3)nc3ccncc32)cc1 | -2.37%
46 | COc1ccc2nc3c([N+](=O)[O-])ccc(Cl)c3c(O)c2c1 | -4.4%
47 | CCC(c1cccs1)N1CNc2c(c(=O)n(C)c(=O)n2C)C1 (stereo not shown) | -2.88%
48 | CC(C)(C)c1ccc(/C=C/C(=O)NC2CCS(=O)(=O)C2)cc1 (stereo not shown) | 2.09%
49 | CCCN1Cc2cccc(C(=O)NCc3cccs3)c2C1=O | -0.499%
50 | OC1(C#Cc2ccccc2)c2ccccc2-c2ncccc21 (stereo not shown) | 3.15%

Row | Compound | % Inhibition @ 10 uM
51 | CN(C)CCNC(=O)c1cc2ccccc2oc1=O | -3.53%
52 | Cc1ccc(CNC(=O)CNS(=O)(=O)c2c(C)cc(C)cc2C)cc1 | -0.564%
53 | CCNC(=O)c1ccc(CSc2nc3cccnc3n2Cc2cccc(F)c2)cc1 | 6.55%
54 | O=C(c1ccc(Cl)cc1)N1CCCOC1 | 25.2%
55 | COc1ccc(CNc2nc(-c3ccccc3)nn2C(=O)COc2ccccc2)cc1 | -1.11%
56 | COc1ccc(N2C(=O)CC(N3CCN(c4cc(C)ccc4C)CC3)C2=O)cc1 (stereo not shown) | -8.29%
57 | CC1CC(C)(C)NC(=S)N1CC(=O)NCc1ccccc1Cl (stereo not shown) | -1.51%
58 | CCOc1ccc(CNc2ccccc2Cl)cc1OC | -8.78%
59 | CCCOc1ccc(C2C(C(=O)c3ccc4c(c3)OCCO4)=C(O)C(=O)N2CC2CCCO2)cc1 (stereo not shown) | -5.03%
60 | O=C(Cc1coc2ccc3ccccc3c12)Nc1cccnc1 | -1.38%
61 | CCn1cc(C(=O)Nc2ccc(Cl)cc2C)c(C)n1 | -4.18%
62 | CCC(C(=O)NCc1cccnc1)n1sc2ccccc2c1=O (stereo not shown) | 2.21%
63 | COc1ccc2c(CNCC(C)c3ccccc3)c(C(=O)O)n(Cc3ccccc3F)c2c1 (stereo not shown) | -5.93%
64 | COCC(C)NC(=O)C(=O)c1cn(CC(=O)N2CCOCC2)c2ccccc12 (stereo not shown) | -4.49%
65 | COc1ccc2c(c1)c(=O)oc1cc(OCC(=O)O)ccc12 | -3.41%
66 | Cn1c(S(=O)(=O)Cc2ccc(Cl)cc2)nc2ccccc21 | 3.15%
67 | CC(=O)N/C(=C\c1ccccc1)C(=O)Nc1ccc(C)c(C)c1 | 4.54%
68 | CCCCN(CC)C(=O)CSc1nc2ccsc2c(=O)n1CC1CCC(C(=O)O)CC1 (stereo not shown) | 4.02%
69 | Clc1ccc(-c2csc(Nc3ncccn3)n2)cc1 | 1.92%
70 | CCCc1ccc(OCc2ccc(C(=O)Nc3nccs3)cc2)cc1 | 0.413%
71 | COc1cc(C)c(S(=O)(=O)N2CCN=C2c2ccccc2)cc1C | -3.5%
72 | COCCCNC(=O)c1cc2c(=O)n3cc(C)ccc3nc2n(Cc2cccnc2)c1=N | 0.279%
73 | COc1ccc(-c2nnc(NC(=O)c3ccco3)s2)cc1OC | 2.3%
74 | CCN1CCN(c2ncnc3scc(-c4ccc(OC)cc4)c23)CC1 | 1.57%
75 | Nc1ccn(-c2ccc(F)cc2)c(=O)c1 | 0.266%

Row | Compound | % Inhibition @ 10 uM
76 | CC1=C(C(N)=O)C(c2cccc(F)c2)n2ncnc2N1 (stereo not shown) | -0.403%
77 | COCC(C)NC(=O)C1=CC(c2ccc(OC)c(OC)c2)=NS(=O)(=O)N1C (stereo not shown) | -6.59%
78 | CS(=O)(=O)N1CCC(C(=O)N2CCN(C(c3ccccc3)c3ccccc3)CC2)CC1 | 2.84%
79 | CCN(CC)C(=O)C1CCCN(Cc2ccc3c(c2)OCO3)C1 (stereo not shown) | 1.55%
80 | Cc1ccsc1S(=O)(=O)c1ccccc1 | -4.01%
81 | Cc1cccc(CNc2nc3nc4c(c(O)n3n2)CCC4)c1 | -6.04%
82 | COc1cc(C(=O)NCC(=O)O)cc(OC)c1OC | 5.02%
83 | CCc1cccc(CC)c1NC(=O)Cn1cnc2c(Cl)cc(Cl)cc2c1=O | 1.34%
84 | CC(C)CC(=O)N1CCC(c2c[nH]c3ccccc23)(c2c[nH]c3ccccc23)CC1 | 10%
85 | Cc1ccc(S(=O)(=O)c2nnn3c2nc(N2CCCC(C)C2)c2ccccc23)cc1 (stereo not shown) | 0.291%
86 | COc1ccc(NC(=O)c2c(-c3c(F)cccc3Cl)noc2C)cc1 | -0.469%
87 | CC1(C)CC(=O)C2=C(C1)OC(N)=C(C#N)C2c1ccc(OC(F)F)cc1 (stereo not shown) | -0.941%
88 | O=C(O)c1cc2ccccc2cc1N1C(=O)c2ccccc2C1=O | 2.68%
89 | O=C(N/C(=C\c1ccccc1)C(=O)N1CCCCC1)c1ccc(Br)o1 | 0.746%
90 | Cc1ccccc1Cn1c2ccccc2c2cnn(CC(=O)NCCN3CCOCC3)c(=O)c21 | -3.35%
91 | CCN(c1ccccc1)S(=O)(=O)c1ccc(NC(=O)COc2ccccc2)cc1 | 3.21%
92 | CCOC(=O)c1c(NC(=O)c2cccc(F)c2)sc2c1CCCC2 | 1.12%
93 | CCN(Cc1ccccc1)C(=O)Cn1ncc2c(=O)oc3ccccc3c21 | -3.06%
94 | Cc1ccccc1Cn1c(CCNC(=O)c2ccccc2)nc2ccccc21 | -5.77%
95 | c1ccc(CN2CCN(c3ncnc4c3nc3n4CCCCC3)CC2)cc1 | -1.07%
96 | COc1ccc(CCNC(=O)CSc2nc3cccnc3[nH]2)c(OC)c1 | 3.24%
97 | COc1ccccc1-c1cccc(C(=O)N[C@@H](CC(C)C)C(=O)NCC#N)c1 | -3.04%
98 | Nc1c(-c2nc(-c3ccc4c(c3)OCO4)no2)nnn1-c1ccc(F)c(Cl)c1 | 2.45%
99 | N#CC1=C(N)OC2=C(C(=O)CCC2)C1c1cccc(O)c1 (stereo not shown) | -1.8%
100 | COc1ccc(C2CC(=O)N3CN(Cc4ccccc4)CSC3=C2C#N)cc1OC (stereo not shown) | 6.73%
